PubChem BioAssay AID995 (National Center for Advancing Translational Sciences (NCATS), 2007)
Among all 72,000 compounds or so, about 710 (0.99%) were called active. The inconclusive results got no clear call from the source; some entries with a clear call stand among them for comparison. Calls follow the shape of the dose curve; as a rule, active = well fitted inhibition curve with a large enough effect; inconclusive = small, poorly fitted or top-dose-only effect; inactive = no such curve, though single readings can be large or run the other way. Where the call is inconclusive, the potency comes from a doubtful curve fit.

Assay: qHTS Assay for Inhibitors of the ERK Signaling Pathway using a Homogeneous Screening Assay; also: nearly all actives have a fitted effect of over 55% in size
Details: HEK293-V1b, vasopressin-stimulated pERK AlphaScreen; activity, negative = inhibition: at 57.5 µM (top of the series) unless noted
In short: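 HEK293 cells stably expressing V1b receptor, seeded overnight in 1% FBS, were treated with compounds for 30 min at 37C, then stimulated 5 min with 25 nM vasopressin; phospho-ERK read by AlphaScreen SureFire after lysis.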
% is scaled to controls: 0 for no effect and ±100 for the full control effect; potency is read from the fitted curve at half-maximal effect; tags tell the direction and shape of the fitted curve.

Potency, inactive:
O=c1c(-c2ccccc2)nc2cnc(Oc3ccccc3)nc2n1Cc1cccs1, Cc1oc2nc(SCC(=O)NCc3cccnc3)nc(N)c2c1C, CN1C(=O)CC(n2c(CO)nc3ccccc32)C1=O (configuration not stated), O=C(Nc1ccccc1)C1=C(O)CC(c2ccco2)CC1=Nc1ccccc1 (configuration not stated), CCCC1(C(=O)OC)C=C2C(=C(C)C(=O)C2C)CN1 (configuration not stated), Cc1noc(COc2ccc(OCc3nc(C)no3)cc2)n1, COc1cccc(C2c3c(oc4cc(C)c(C)cc4c3=O)C(=O)N2CCCN(C)C)c1 (configuration not stated), COC(=O)Cn1c(C(=O)N2CCCC2)cc2c1C[C@H]1CN(C(=O)c3ccccc3)[C@@](Cc3ccccc3)(C(=O)OC)[C@@H]21, CC(=O)N1CCC2(CCCN(c3cccc(-c4ccccc4)c3)C2)CC1, COc1ccccc1N1CCN(CCCNc2cc(=O)n(C)c(=O)n2C)CC1, COc1cccc(-n2c(SCC(=O)NCCC3=CCCCC3)nc3n[nH]c(C)c3c2=N)c1, COC(=O)c1[nH]c2cccc(OC)c2c1NC(=O)CCN1CCC(C(N)=O)CC1, O=C(CSc1nnc(C2CC2)n1Cc1ccccc1)c1cc2ccccc2o1, Cc1ccc(-c2nc(C(=O)NC3CCCCCC3)no2)cc1, O=C(NCCN1CCOCC1)NC1(C(F)(F)F)Oc2ccccc2O1, Cc1ccccc1-n1c(SCc2cc(=O)n3ccccc3n2)nc2[nH]ncc2c1=O, Cc1onc(-c2ccccc2)c1C(N)=O, O=c1c(-c2ccc(O[C@@H]3O[C@H](CO)[C@@H](O)[C@H](O)[C@H]3O)cc2)coc2cc(O)cc(O)c12, CC(c1ccccc1)n1cc(C(=O)NCCCn2ccnc2)nn1 (configuration not stated), O=C(Nc1cccc2ccccc12)N1CCN(Cc2ccccc2)CC1, CN[C@@H]1[C@H](O[C@H]2[C@@H](O[C@@H]3[C@@H](O)[C@@H](O)[C@@H](N=C(N)N)[C@@H](O)[C@@H]3N=C(N)N)O[C@@H](C)[C@]2(O)CO)O[C@H](CO)[C@@H](O)[C@@H]1O, CC(C)(C)n1ncc2c(=O)n(CC(=O)Nc3ccc(Cl)cc3)cnc21, CCN(Cc1cc2ccccc2[nH]c1=O)C(=O)C1CCCCC1, N#Cc1c(N)oc(-c2ccccc2)c1-c1ccccc1, O=C(C1CCN(S(=O)(=O)c2cccc3cccnc23)CC1)N1CCCC1

Potency, active:
CN(C)CCCn1cc(C2=C(c3c[nH]c4ccccc34)C(=O)NC2=O)c2ccccc21 0.794 µM, Cc1cc(Nc2cccc(F)c2)nc(-c2ccccc2O)n1 7.94 µM, N#C/C(=C/c1ccc(N2CCCCCC2)o1)c1ccc(F)cc1 25.1 µM, COCC(=O)O[C@]1(CCN(C)CCCc2nc3ccccc3[nH]2)CCc2cc(F)ccc2[C@@H]1C(C)C 20 µM

Potency, inconclusive:
COc1ccc(NC(=O)C2CCCN(S(=O)(=O)c3cccc4cccnc34)C2)cc1 (configuration not stated) 31.6 µM [inhibitor, single point], COc1ccc(CCNC(=O)c2cc(-c3ccccc3O)n[nH]2)cc1OC 7.94 µM [inhibitor, partial curve], COCC(C)n1c(C)cc(C(=O)COC(=O)c2ccc3ncsc3c2)c1C (configuration not stated) 39.8 µM [inhibitor, single point], CCCn1c(C)nc2c(Nc3ccccc3)nc(C)nc21 31.6 µM [inhibitor, single point], Cc1ccccc1CNc1nc(N)n(-c2ccccc2)n1 12.6 µM [inhibitor, partial curve], COc1cc(S(=O)(=O)Nc2ccccc2C)ccc1Cl 12.6 µM [inhibitor, partial curve], COc1cccc(CNC(=O)CN(c2cc(C)cc(C)c2)S(=O)(=O)c2c(C)noc2C)c1 20 µM [inhibitor, single point], CCOC(=O)C1=C(C)N=c2s/c(=C/c3ccco3)c(=O)n2C1c1cccc(OC)c1 (configuration not stated) 39.8 µM [inhibitor, single point], CCN1CCCC1CNC(=O)c1cc2c(-c3ccc(Cl)cc3)nn(C)c2s1 (configuration not stated) 25.1 µM [inhibitor, single point], C=CCn1c(C)cc(C(=O)COC(=O)C2CC(=O)N(Cc3ccccc3)C2)c1C (configuration not stated) 31.6 µM [inhibitor, single point], Cc1ccc(Nc2nc(N)nc(CN3CCCCCC3)n2)c(C)c1 12.6 µM [inhibitor, partial curve], COc1cccc(C2CC(c3cccc(Br)c3)n3nc(N)nc3N2)c1 (configuration not stated) 20 µM [inhibitor, partial curve], COc1ccc(CNc2cc(-c3ccccc3OC)ncn2)c(OC)c1 7.94 µM [inhibitor, partial curve], CCOc1cccc(C(=O)Nc2ccc(N(CC)CC)cc2)c1 39.8 µM [inhibitor, single point], CCc1cc(=O)oc2cc(OCC(=O)OC)c(Cl)cc12 20 µM [inhibitor, single point], O=S(=O)(c1cccc(-c2nc3ccccc3s2)c1)N1CCCC1 12.6 µM [inhibitor, partial curve], O=c1cc(CN2CCN(C/C=C/c3ccccc3)CC2)c2cc(O)ccc2o1 10 µM [inhibitor, partial curve], CCOC(=O)c1ccc(NC(=O)N2CCN(c3ccccn3)CC2)cc1 31.6 µM [inhibitor, single point], CC1=C(C(=O)NCc2ccc3c(c2)OCO3)C2(CCC(C)CC2)OC1=O (configuration not stated) 1.58 µM [inhibitor, full curve, poor fit], O=C(/C=C/C=C/c1ccc2c(c1)OCO2)N1CCCCC1 39.8 µM [inhibitor, single point], Cc1nc2ccccc2c(=O)n1/N=C/c1ccncc1 15.8 µM [inhibitor, partial curve], O=C(CCCC1=NS(=O)(=O)c2ccccc2N1)N1CCN(c2ccc(Cl)cc2)CC1 39.8 µM [inhibitor, single point], Cc1cc(C)n(-c2ccc(C(=O)OCc3nnc(-c4ccccc4)o3)cc2)n1 25.1 µM [inhibitor, single point], Cc1ccc(S(=O)(=O)c2c(N)n(C)c3nc4ccccc4nc23)cc1 10 µM [inhibitor, partial curve], Nn1c(-c2cccc(Br)c2)n[nH]c1=S 15.8 µM [inhibitor, partial curve], Clc1ccc(-c2nc(NCCN3CCOCC3)c3ccccc3n2)cc1 20 µM [inhibitor, partial curve], COc1ccccc1CCn1c(=O)c(-c2ccc(Cl)cc2)nc2cncnc21 2.51 µM [inhibitor, partial curve, poor fit], Cc1ccc(Cn2nnc3c(=O)[nH]c(C4CCN(C(=O)c5cccs5)CC4)nc32)cc1 0.0126 µM [inhibitor, full curve, poor fit], Cc1c(C(=O)OC2CCCC2C)[nH]c2c1C(=O)CCC2 (configuration not stated) 39.8 µM [inhibitor, single point], CC(C)Oc1ccc(NC(=O)c2ccncc2)cc1 20 µM [inhibitor, partial curve, poor fit], CCOc1ccc(C(=O)NCc2cccnc2)cc1 39.8 µM [inhibitor, single point], Oc1ccc(-c2onc(C(F)(F)F)c2-c2cscn2)c(O)c1 5.01 µM [inhibitor, partial curve, poor fit], Cc1ccc(-c2noc(C3CCCN(C(=O)c4c(F)cccc4F)C3)n2)cc1 (configuration not stated) 5.01 µM [inhibitor, partial curve], O=C(C1CCC1)N1CCc2cc(S(=O)(=O)NCc3cccnc3)ccc21 15.8 µM [inhibitor, single point], CCc1cc(=O)oc2cc(OC(C)=O)cc(OC(C)=O)c12 20 µM [inhibitor, partial curve, poor fit], Cn1nc(CC(=O)Nc2ccc3c(c2)OCCO3)c2ccccc2c1=O 10 µM [inhibitor, partial curve, poor fit], CCC1Oc2ccccc2N(CC(=O)Nc2ccccc2OC)C1=O (configuration not stated) 0.1 µM [inhibitor, full curve, poor fit], CCNc1nc(N)nc(Oc2ccc(OCCOc3ccccc3)nn2)n1 50.1 µM [inhibitor, partial curve, poor fit], CCc1ccc2[nH]c(=O)c(CN(CCCN3CCOCC3)C(=O)Nc3ccc(F)cc3)cc2c1 15.8 µM [inhibitor, partial curve]

activity, negative = inhibition, inconclusive:
CCOC(=O)c1ccc(NC(=O)Nc2cc(C)on2)cc1 -44.9% [inhibitor]

activity, negative = inhibition, inactive:
CN(C)C(=O)C1CCN(Cc2c[nH]c3ccccc23)CC1 -18.8% [at 11.5 µM], C=C(C)CNCCN -1.41% [at 11.5 µM], O=S(=O)(O)c1cc(N=Nc2cccc3ccccc23)c(O)c2ncccc12 -17.1% [at 11.5 µM]
